Out of some 310,000 compounds screened, about 14,000 (4.5%) showed an effect of 50% or more. The effect is printed as a negative number. The list shows a part of the results.
Molecular target: human ether-à-go-go-related gene (hERG) potassium channel (human, UniProt Q12809)
Assay: primary screen, population patch clamp on CHO cells stably expressing hERG
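Also: peak tail current of the secondary pulse compared with the same well before compound.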

Sequence of human ether-à-go-go-related gene (hERG) potassium channel (Q12809 whole entry, looked up): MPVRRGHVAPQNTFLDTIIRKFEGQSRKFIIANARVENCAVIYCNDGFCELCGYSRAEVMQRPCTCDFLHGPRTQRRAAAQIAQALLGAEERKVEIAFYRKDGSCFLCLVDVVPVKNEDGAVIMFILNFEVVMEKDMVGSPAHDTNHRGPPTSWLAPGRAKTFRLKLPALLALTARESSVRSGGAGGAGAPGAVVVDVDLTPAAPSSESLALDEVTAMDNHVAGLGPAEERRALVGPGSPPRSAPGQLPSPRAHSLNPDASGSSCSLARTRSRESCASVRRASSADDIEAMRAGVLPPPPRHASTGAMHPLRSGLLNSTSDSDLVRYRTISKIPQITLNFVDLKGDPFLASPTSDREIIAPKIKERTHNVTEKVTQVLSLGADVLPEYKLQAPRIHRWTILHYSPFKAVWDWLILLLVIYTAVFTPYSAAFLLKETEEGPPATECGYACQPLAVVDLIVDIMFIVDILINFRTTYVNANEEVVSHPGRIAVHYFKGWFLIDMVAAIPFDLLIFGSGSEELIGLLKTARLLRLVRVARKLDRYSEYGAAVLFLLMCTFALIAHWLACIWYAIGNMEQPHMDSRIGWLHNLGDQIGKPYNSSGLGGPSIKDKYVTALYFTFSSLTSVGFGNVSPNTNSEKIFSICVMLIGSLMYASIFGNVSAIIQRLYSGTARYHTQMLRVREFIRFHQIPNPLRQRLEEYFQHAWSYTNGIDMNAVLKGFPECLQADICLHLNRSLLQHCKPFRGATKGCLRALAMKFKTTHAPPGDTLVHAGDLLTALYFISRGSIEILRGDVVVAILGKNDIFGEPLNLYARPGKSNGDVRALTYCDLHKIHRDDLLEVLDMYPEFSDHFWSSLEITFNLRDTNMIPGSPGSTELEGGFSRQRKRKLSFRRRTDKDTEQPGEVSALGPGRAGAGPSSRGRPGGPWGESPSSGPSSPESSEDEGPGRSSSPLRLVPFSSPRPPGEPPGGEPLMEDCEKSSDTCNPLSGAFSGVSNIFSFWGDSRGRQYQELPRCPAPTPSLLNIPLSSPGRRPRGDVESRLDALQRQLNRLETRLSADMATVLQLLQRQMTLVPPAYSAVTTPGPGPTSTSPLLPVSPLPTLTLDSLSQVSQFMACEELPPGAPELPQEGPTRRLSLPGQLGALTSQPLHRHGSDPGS

| Structure (SMILES) | hERG current change (%, negative = inhibition) at 10uM [%] |
| --- | --- |
| COc1cc(C(=O)NCCC(=O)NCCCN2CCCCC2C)cc(OC)c1OC (stereo not shown) | -2.45 |
| O=C(O)/C(=C\c1ccccc1Cl)c1ccc(S(=O)(=O)N2CCCCC2)s1 | 22.7 |
| CCCCOc1ccccc1C1NC(=O)NC(C)=C1C(=O)OCCOCC (stereo not shown) | -8.27 |
| COc1ccccc1CNc1nc(=S)[nH]c2cc(OC)c(OC)cc12 | -11.8 |
| [O-]C1=N/[N+](=C/c2ccc(Cl)c(Cl)c2)CC1 | 14.4 |
| CCOC(=O)C1CCCN(C(=O)c2csc(-c3ccc4c(c3)CCO4)n2)C1 (stereo not shown) | -8.82 |
| Cc1ccc(SCCC(=O)N2CCC(C(N)=O)CC2)cc1 | -7.54 |
| CC(C)C(=O)NNC(=O)C1CC1(c1ccccc1)c1ccccc1 (stereo not shown) | 16.9 |
| COc1ccc(/C=N/NC(=O)c2nonc2N)cc1OC | 9 |
| O=C(NN=C1CCCCCCC1)C(=O)NC1CCCCC1 | -13.6 |
| CCOC(=O)c1[nH]c(=O)c2ccccc2c1O | -9.53 |
| COc1ccc(C(=O)NC(CCSC)C(=O)N2CCCCCC2)cc1 (stereo not shown) | 0.159 |
| CCN(CC)C(=O)c1ccccc1NC(=O)c1ccccc1 | 8.85 |
| Cc1n[nH]c(C)c1CCNC(=O)C1CCC(=O)N(Cc2ccccc2F)C1 (stereo not shown) | 14.4 |
| COc1ccc(CNC(=O)c2csc(Cc3ccc(Cl)cc3)n2)cc1 | 6.63 |
| O=c1c2ccccc2cnn1Cc1n[nH]c(=S)n1-c1ccccc1Cl | 23.2 |
| CC(C)[C@H](NC(=O)c1ccco1)C(=O)OCC(=O)Nc1ccccc1OC(F)F | 5.69 |
| COc1cc(/C=N/NC(N)=O)ccc1OCC(=O)Nc1ccc(C)c(C)c1 | -10.7 |
| Cc1ccccc1NC(=S)NC(C)C(c1ccccc1)N1CCN(C)CC1 (stereo not shown) | -12.5 |
| CCSc1nnc(NC(=O)Cc2cc(OC)c(OC)c(OC)c2)s1 | 8.27 |
| COCC1CCN(Cc2nc(-c3ccc(OC)cc3)no2)CC1 | 16.2 |
| COc1ccc(NCC(=O)N/N=C/c2c(C)nn(Cc3ccccc3)c2Cl)cc1 | -15 |
| COc1ccc(-c2cn(-c3ccc(C)c(Cl)c3)c(=S)[nH]2)cc1OC | 21.8 |
| COc1ccc(-c2cnc(NCc3cc4c(cc3[N+](=O)[O-])OCO4)n2C)cc1 | -48.4 |
| COc1cccc(Cn2c(=S)[nH]c3ccc(N4CCOCC4)cc3c2=O)c1 | -8.19 |
